Reference: a collection of fitness landscapes (doi:10.1126/science.1257360)
Some of the results follow.

B1: PhoQ; a variant is named by its letters at X, in order, P23837 (parent)
chain: MKKLLRLFFPLSLRVRFLLATAAVVLVLSLAYGMVALIGYSVSFDKTTFRLLRGESNLFYTLAKWENNKLHVELPENIDKQSPTMTLIYDENGQLLWAQRDVPWLMKMIQPDWLKSNGFHEIEADVNDTSLLLSGDHSIQQQLQEVREDDDDAEMTHSVAVNVYPATSRMPKLTIVVVDTIPVELKSSYMVWSWFIYVLSANLLLVIPLLWVAAWWSLRPIEALAKEVRELEEHNRELLNPATTRELTSLVRNLNRLLKSERERYDKYRTTLTDLTHSLKTPLXXLQXXLRSLRSEKMSVSDAEPVMLEQISRISQQIGYYLHRASMRGGTLLSRELHPVAPLLDNLTSALNKVYQRKGVNISLDISPEISFVGEQNDFVEVMGNVLDNACKYCLEFVEISARQTDEHLYIVVEDDGPGIPLSKREVIFDRGQRVDTLRPGQGVGLAVAREITEQYEGKIVAGESMLGGARMEVIFGRQHSAPKDE

Variants of: B1
Experiment: enrichment ratio after two sorts for PhoP signalling (ratio (wild type AVST 3.29)); higher = more functional
Details: with PhoP (E. coli)

| Variant | enrichment ratio |
| --- | --- |
| WHFS | ≤ 0.25 |
| KYPN | ≤ 0.25 |
| FNQE | ≤ 0.25 |
| EGLT | ≤ 0.25 |
| SVWK | ≤ 0.25 |
| SVYE | ≤ 0.25 |
| YWVV | ≤ 0.25 |
| ICIL | ≤ 0.25 |
| ISRL | ≤ 0.25 |
| VSAQ | ≤ 0.25 |
| GWFC | ≤ 0.25 |
| NCNY | ≤ 0.25 |
| MCRM | ≤ 0.25 |
| AWRD | ≤ 0.25 |
| ILQL | ≤ 0.25 |
| EAPL | ≤ 0.25 |
| WKAI | ≤ 0.25 |
| NKIQ | ≤ 0.25 |
| WILP | ≤ 0.25 |
| VVAR | ≤ 0.25 |
| PHMI | ≤ 0.25 |
| HPQY | ≤ 0.25 |
| YCGW | ≤ 0.25 |
| VWRD | ≤ 0.25 |
| PAFL | ≤ 0.25 |

| Variant | enrichment ratio |
| --- | --- |
| ISNA | ≤ 0.25 |
| FCPA | ≤ 0.25 |
| PYSL | ≤ 0.25 |
| KNRH | ≤ 0.25 |
| PRKF | ≤ 0.25 |
| KAMP | ≤ 0.25 |
| DSDY | ≤ 0.25 |
| YDAF | ≤ 0.25 |
| WAWS | ≤ 0.25 |
| IKGC | ≤ 0.25 |
| SWPA | ≤ 0.25 |
| EQWP | ≤ 0.25 |
| NQSN | ≤ 0.25 |
| LARA | ≤ 0.25 |
| IRLT | ≤ 0.25 |
| DNWG | ≤ 0.25 |
| NGTI | ≤ 0.25 |
| SFPM | ≤ 0.25 |
| QGLT | 7.33 |
| IEKS | ≤ 0.25 |
| TTGR | ≤ 0.25 |
| SDVA | ≤ 0.25 |
| KRTI | ≤ 0.25 |
| YHLY | ≤ 0.25 |
| CICV | 0.57 |

| Variant | enrichment ratio |
| --- | --- |
| ALFW | ≤ 0.25 |
| PIPT | ≤ 0.25 |
| SAKW | ≤ 0.25 |
| STCD | 6.22 |
| EMTP | ≤ 0.25 |
| MGYA | ≤ 0.25 |
| NASN | ≤ 0.25 |
| PPRI | ≤ 0.25 |
| QMEW | ≤ 0.25 |
| NTKM | ≤ 0.25 |
| TWRM | ≤ 0.25 |
| VNCY | 6.95 |
| TPDF | ≤ 0.25 |
| LIFS | ≤ 0.25 |
| KGDL | ≤ 0.25 |
| NFEP | ≤ 0.25 |
| VPGY | ≤ 0.25 |
| RINT | ≤ 0.25 |
| GCKF | ≤ 0.25 |
| GLTI | 11.7 |
| WWCL | ≤ 0.25 |
| CCSL | ≤ 0.25 |
| PRPK | ≤ 0.25 |
| QPYQ | ≤ 0.25 |
| IWRR | ≤ 0.25 |

| Variant | enrichment ratio |
| --- | --- |
| TYVK | ≤ 0.25 |
| KTKG | ≤ 0.25 |
| QVLI | ≤ 0.25 |
| AKPN | ≤ 0.25 |
| RHKE | ≤ 0.25 |
| LSLS | ≤ 0.25 |
| KVKP | ≤ 0.25 |
| SGGL | 6.41 |
| SSFF | 5.98 |
| AWEQ | ≤ 0.25 |
| ASCQ | 4.02 |
| LNSK | ≤ 0.25 |
| TDCE | ≤ 0.25 |
| HLGW | ≤ 0.25 |
| NGVK | ≤ 0.25 |
| WMCG | ≤ 0.25 |
| DVWD | ≤ 0.25 |
| TQLF | 9.47 |
| KHYS | ≤ 0.25 |
| TISF | 5.1 |
| STCQ | 15.3 |
| HERR | ≤ 0.25 |
| HDSS | ≤ 0.25 |
| DYHC | ≤ 0.25 |
| LFWA | ≤ 0.25 |

| Variant | enrichment ratio |
| --- | --- |
| VNDV | ≤ 0.25 |
| FMYH | ≤ 0.25 |
| VAEV | ≤ 0.25 |
| VCGQ | ≤ 0.25 |
| VCDN | ≤ 0.25 |
| IHRH | ≤ 0.25 |
| ITTS | ≤ 0.25 |
| VFVV | ≤ 0.25 |
| ILYK | ≤ 0.25 |
| FLRY | ≤ 0.25 |
| GPWV | ≤ 0.25 |
| PMLH | ≤ 0.25 |
| TLIM | ≤ 0.25 |
| HKTC | ≤ 0.25 |
| TLHL | 0.57 |
| EISR | 0.602 |
| HECW | ≤ 0.25 |
| ERQV | ≤ 0.25 |
| KAVF | ≤ 0.25 |
| VDKS | ≤ 0.25 |
| MFFE | ≤ 0.25 |
| TYYF | ≤ 0.25 |
| TYPC | ≤ 0.25 |
| PCMG | ≤ 0.25 |
| SDIY | 0.384 |

| Variant | enrichment ratio |
| --- | --- |
| WFVL | ≤ 0.25 |
| VFSP | ≤ 0.25 |
| TVDF | 2.62 |
| QEHM | 10.7 |
| FHTS | ≤ 0.25 |
| MFVC | ≤ 0.25 |
| EQLS | ≤ 0.25 |
| NIWY | ≤ 0.25 |
| HYPL | ≤ 0.25 |
| RNHR | ≤ 0.25 |
| VTNT | ≤ 0.25 |
| DWPC | ≤ 0.25 |
| TAQQ | 32.8 |
| PTPQ | ≤ 0.25 |
| KFWD | ≤ 0.25 |
| AMSQ | 10.7 |
| KSPP | ≤ 0.25 |
| WTGW | ≤ 0.25 |
| AVMH | 11.8 |
| HPCS | ≤ 0.25 |
| PSQA | ≤ 0.25 |
| WPQI | ≤ 0.25 |
| EHGI | ≤ 0.25 |
| RMFH | ≤ 0.25 |
| YWYL | ≤ 0.25 |

| Variant | enrichment ratio |
| --- | --- |
| YAYS | ≤ 0.25 |
| LERG | ≤ 0.25 |
| RMLR | ≤ 0.25 |
| WPNY | ≤ 0.25 |
| EDVP | ≤ 0.25 |
| LSGC | ≤ 0.25 |
| PTPH | ≤ 0.25 |
| LGIG | ≤ 0.25 |
| DTQA | ≤ 0.25 |
| YSTT | ≤ 0.25 |
| NPLT | ≤ 0.25 |
| WMWE | ≤ 0.25 |
| IFKM | ≤ 0.25 |
| TKTP | ≤ 0.25 |
| TNDH | ≤ 0.25 |
| FMFH | ≤ 0.25 |
| TKAG | ≤ 0.25 |
| VQWG | ≤ 0.25 |
| KRAN | ≤ 0.25 |
| FHTM | ≤ 0.25 |
| EMPY | ≤ 0.25 |
| NYNF | ≤ 0.25 |
| TGHI | ≤ 0.25 |
| IKSE | ≤ 0.25 |
| FISC | ≤ 0.25 |

| Variant | enrichment ratio |
| --- | --- |
| YDTL | ≤ 0.25 |
| LPQW | ≤ 0.25 |
| QRQS | ≤ 0.25 |
| PRFD | ≤ 0.25 |
| QHWN | ≤ 0.25 |
| TPGF | ≤ 0.25 |
| KISI | ≤ 0.25 |
| VEDD | ≤ 0.25 |
| INVN | ≤ 0.25 |
| RNLL | ≤ 0.25 |
| WKDA | ≤ 0.25 |
| QLHC | 21.3 |
| YSCS | ≤ 0.25 |
| GYFW | ≤ 0.25 |
| MSIM | 8.97 |
| DWNQ | ≤ 0.25 |
| SDEN | ≤ 0.25 |
| QTRI | ≤ 0.25 |
| RGMC | ≤ 0.25 |
| DIPY | ≤ 0.25 |
